Experimental findings from the RNAGym collection of RNA variant scans (doi:10.7554/elife.90254) are described below.

Read counts are not given, so values of variants with three or more changes are uncertain.

The labels stand for the following.
B1: LINE1-mini (parent)
chain: GGCAGAGCUCAACACAGCGUGGCAAAGUGGCUGUGGCUAGACUGCC

In the data set the parent is B1. As to the kind of experiment: self-cleavage, relative activity (ratio to wild type); higher = more cleavage; in vitro, sequencing; the parent is a self-cleaving ribozyme.
Take G7U G17U U28C A39G G40A C45G: the self-cleavage was 0.04.

With C18A A26U C31G U34A A39C, the self-cleavage amounted to 0.08.

In the case of G19U U32G G36A, the self-cleavage turned out to be 0.05.

For G17U A41U C42G, the self-cleavage turned out to be 0.08.

Turning to A16C G19C U20C A25C, the self-cleavage amounted to 0.08.

On to C3G A4C G7A C8U, for which the self-cleavage turned out to be 0.82.

For the variant C23A A25C U43G G44U, the self-cleavage came out at 0.13.

As for A6U C8U G19U U20A, the self-cleavage worked out at 0.12.

Turning to C3U A6C A11C G17U, the self-cleavage was 0.03.

For G1C C10A A16U U34G G35U C42A, the self-cleavage is 0.01.

Take A6C G36A G40U G44U: the self-cleavage worked out at 0.04.

In the case of C23A U28G G36U U43G G44A C46U, the self-cleavage worked out at 0.

On to G5A C10U G21A U34A G36A C45U, for which the self-cleavage came out at 0.05.

Regarding C13U G29U G30U, the self-cleavage came to 0.05.

For G17C A24G A39G, the self-cleavage is 0.09.

As for U9G C10G A26U, the self-cleavage was 0.03.

Turning to C8U A12C C15A G35U, the self-cleavage is 0.01.

Regarding G7C G17U A26G A39C, the self-cleavage came to 0.05.

Consider C10A G30C U34C, for which the self-cleavage amounted to 0.02.

Regarding C15U A16G G21U A24G A25U G29C, the self-cleavage was determined as 2.02.

As to A24G A26U G33C C42A, the self-cleavage came out at 0.03.

Regarding U9A G21U U38C, the self-cleavage stood at 0.06.

Consider C18G A26U C45A C46U, for which the self-cleavage was found to be 0.03.

Take G7U G17U G35A G40C: the self-cleavage stood at 0.06.

As to A12U C42G C45A, the self-cleavage turned out to be 0.14.

On to G1C C37G C42G, for which the self-cleavage was found to be 0.

G22A G27U U34C G35U A39C: the self-cleavage is 0.

Turning to G7C U9A C23A U34A G35A C37U, the self-cleavage is 0.05.

As for C8A A14C G22U G36C, the self-cleavage stood at 0.21.

On to A11G A25U C37U, for which the self-cleavage came out at 0.02.

Regarding G2U C23U U32C, the self-cleavage turned out to be 0.05.

Turning to C15U G17A U20A, the self-cleavage was found to be 0.03.

Consider C3G G5C G7C C18A, for which the self-cleavage is 0.03.

For A11G G29A G30U A39G A41C, the self-cleavage is 0.01.

A12U G21C C31U U34G: the self-cleavage was determined as 0.02.

C3A G5C G17C G21C U38C A41G: the self-cleavage is 0.01.

Turning to U9G A16G G27C, the self-cleavage was determined as 0.

Regarding G2C G7C U9A G33U C37U U38C U43A, the self-cleavage was found to be 0.02.

Regarding U28G G30U C37U, the self-cleavage stood at 0.

For C10G C13G C31G, the self-cleavage is 0.

On to G7U A11U G17U C18A, for which the self-cleavage came out at 0.03.

Consider A16U U20A C45A, for which the self-cleavage turned out to be 0.04.

Regarding G5C G21U C37G, the self-cleavage came to 0.01.

Take G1C C3U A4G C8A A26G G27U C45A C46U: the self-cleavage turned out to be 0.07.

With G5C C10G A25C C31G, the self-cleavage worked out at 0.02.

For A4C A12U U28G G33U U34C U43C, the self-cleavage worked out at 0.

With A24U G35C C46U, the self-cleavage was 0.05.

Consider A16U U20G G44U C45U, for which the self-cleavage was 0.06.

For the variant G22C U28A C37A, the self-cleavage was 0.03.

In the case of U20G A24C G35U, the self-cleavage was determined as 0.03.

Turning to G5C A14U G21U G30U U32C, the self-cleavage was 0.09.

As for C18A A41U C42U, the self-cleavage turned out to be 0.03.

G5U A11C G29A G35A G44A: the self-cleavage was 0.

In the case of A11G C15A C37G, the self-cleavage was determined as 0.01.

C3G A16U G21A A24G G27C: the self-cleavage came to 0.1.

C18G A24C A26C C31U U32G: the self-cleavage amounted to 0.01.

Regarding G5U C13A A16G U28G, the self-cleavage was 0.02.

Turning to C8A C10G G29C A39G G44A, the self-cleavage was 0.02.

Take C18U G35U C37A G44A: the self-cleavage amounted to 0.03.

In the case of C18A G22U C31U C37U C45G, the self-cleavage was 1.28.

U9A A14C C18A G21A U34A: the self-cleavage worked out at 0.21.

As to C10U G21U G27A G40U, the self-cleavage stood at 0.

A14G G17U U20G G21U G40C C46A: the self-cleavage came out at 0.05.

A6G G21A A41C: the self-cleavage was determined as 0.22.

With A11U A25U C42A, the self-cleavage came out at 0.02.

As for C8A C13G A24C C31A, the self-cleavage came to 0.2.

As to C3A C10A A12U G17C C18U A26C G30U, the self-cleavage came out at 0.03.

Take C18G G19U C37A: the self-cleavage was 0.04.

On to A11G G21A G22A U34C, for which the self-cleavage came to 0.02.

Regarding C10U A11G G29U, the self-cleavage came to 0.01.

Regarding C3U C15A A16G, the self-cleavage was 0.07.

Regarding G22U C23A G33U, the self-cleavage came to 0.51.

In the case of G29C U34A C37U, the self-cleavage was 0.01.

In the case of A12G U20A G33U G44U, the self-cleavage stood at 0.

For the variant A14G G29U C42U, the self-cleavage turned out to be 0.09.

Consider G2A G19C C42A, for which the self-cleavage turned out to be 0.06.

As for A4G G5U U9A C13A, the self-cleavage was 0.6.

Regarding A4U C13U G27C G29C C31A C42U, the self-cleavage was determined as 0.15.

As to C13U U38C C46U, the self-cleavage is 0.15.

For G7U A11C G29A C46U, the self-cleavage was found to be 0.01.

As to C18U G22C A24C, the self-cleavage amounted to 0.1.

Turning to G1U A14C A41C, the self-cleavage amounted to 0.01.

For the variant G5U G35C C42A, the self-cleavage is 0.07.

With A6C C10A G17C G35C, the self-cleavage came out at 0.01.

Consider G5A A6U U9A C13A U20C U28A G33U C45G, for which the self-cleavage turned out to be 0.03.

On to G19A U43A C45G, for which the self-cleavage came out at 0.04.

On to G5A G29U G40U, for which the self-cleavage is 0.13.

For the variant C3G G21A G33U, the self-cleavage was 0.04.

Consider G2U C13G U38C G44A, for which the self-cleavage worked out at 0.02.

A4G A11U C31U: the self-cleavage is 0.02.

For C13G A24C A26G G27U U32A G33A, the self-cleavage is 0.02.

For C8A G27A U32C, the self-cleavage turned out to be 0.19.

Regarding C10U U34C U43A, the self-cleavage worked out at 0.02.

As to A11U G21A U28C G30U U38G C42U, the self-cleavage was 0.01.

As to C15A A16G C18U, the self-cleavage turned out to be 0.02.

As to A24G G29C C31A G33A A39U, the self-cleavage is 0.04.

Turning to G5A G7A C15U C42A, the self-cleavage came to 0.34.

Consider G17U G36A C42G, for which the self-cleavage stood at 0.04.

In the case of A4U C10G C23U C31A G44C, the self-cleavage turned out to be 0.01.

As for A11C A14C C18U, the self-cleavage is 0.05.

As to C18U U20G C45U C46A, the self-cleavage was determined as 0.09.

As for A6U U9G A25U U34C G36U, the self-cleavage was determined as 0.02.

Regarding C18G G21C G33A, the self-cleavage was 0.02.

Take A11C C15U C18U G19C G22U A26G G30U: the self-cleavage was 0.01.

For C18U G21U G35A, the self-cleavage is 0.07.

For C3U A6G G30A U34A, the self-cleavage is 0.11.

With C10A A11C A12G U38G C45A, the self-cleavage turned out to be 0.

As to G5A G30U G40C, the self-cleavage is 0.04.

Regarding G1U A16U C23G U43A, the self-cleavage is 0.03.

In the case of G2U G21U G22A C31G A41U, the self-cleavage was 0.01.

With U32C G35U A41G C42A, the self-cleavage was 0.03.

Consider C10G C13U G17U C45A, for which the self-cleavage turned out to be 0.03.

A11U G29A U38C: the self-cleavage was 0.03.

Consider G1C G19C G44U, for which the self-cleavage stood at 0.13.

On to C3U G5A G17A C18A G33C, for which the self-cleavage came to 0.02.

Regarding G5A A12G A26G, the self-cleavage amounted to 0.07.

In the case of A14U U20A G22C C37G A41G, the self-cleavage is 0.07.

On to U9A A25C A41G, for which the self-cleavage worked out at 0.03.

Consider A6G U28A G35U A39U, for which the self-cleavage was 0.04.

Regarding A14G C15U G17C U28G, the self-cleavage was found to be 0.03.

With G19U C23A G29C C31A, the self-cleavage was 0.1.

As to G2A A24G G27A, the self-cleavage is 0.84.

For the variant G19A G22A A26U, the self-cleavage amounted to 0.45.

Regarding C3A G5U A26G U32A G40U, the self-cleavage was determined as 0.07.

On to G17A G27U U28G C45A, for which the self-cleavage stood at 0.07.

As for C10U A12C G27U, the self-cleavage came out at 0.01.

Consider A12U C42A U43G, for which the self-cleavage was found to be 0.03.

As for C3G C8G G22C, the self-cleavage is 0.31.

On to C3A G7A G30U C46U, for which the self-cleavage turned out to be 0.8.

Consider G1U G5C C8G G21C A25U, for which the self-cleavage came to 0.52.

G1C G5U C18G G22A: the self-cleavage was determined as 0.01.

For C10A A26U A39U G40A, the self-cleavage was found to be 0.07.

For G7U A11U C18U A26G, the self-cleavage was determined as 0.

As to A11G G19C G27A A39C, the self-cleavage is 0.

As to C8G A26U G27C U28C C31G, the self-cleavage amounted to 0.01.

Consider G22A U32A C46A, for which the self-cleavage was 0.09.

Take A12C C23A G30U: the self-cleavage was 0.02.

Consider A4G C8A A12U G33C U43G C46U, for which the self-cleavage amounted to 0.

With A26U C31U C37U, the self-cleavage worked out at 0.1.

As to G5C G35U A41U C46U, the self-cleavage was determined as 0.04.

Regarding A16U G19U U38A, the self-cleavage was determined as 0.04.

Regarding A11G G33C A41U, the self-cleavage is 0.

On to C3U C10U U28G A39G C42G, for which the self-cleavage is 0.07.

A12U C23U A26U C37U: the self-cleavage is 0.

Regarding C3U C15A G19C G29C, the self-cleavage came to 0.03.

In the case of C15U G19U A26U U34C, the self-cleavage was 0.33.

Take C3U A6G A11C G21U: the self-cleavage was determined as 0.01.

Take C8A U38C G40U: the self-cleavage was 0.42.

Consider C31G U34A A41C, for which the self-cleavage is 0.02.

Take C10G C23U G33C U38C G44A: the self-cleavage stood at 0.01.

Take C18U G19U C42A: the self-cleavage came to 0.02.

Take A12G G35A C45A: the self-cleavage worked out at 0.01.

C3G G17A C23U A26U G30A C42G C45U: the self-cleavage is 0.08.

On to G2A C3U G22U C31G, for which the self-cleavage worked out at 0.21.

As to G5U G29A C31G C42A G44U, the self-cleavage came to 0.01.

G2C G27A C42G: the self-cleavage is 0.2.

For the variant G2U C13U C15A C42A, the self-cleavage came to 0.11.

On to C23U C42G C45A, for which the self-cleavage came out at 0.04.

For the variant A16G A24G U43C, the self-cleavage was determined as 0.02.

On to C3U G21U C42G C46G, for which the self-cleavage stood at 0.01.

For G2U C10G A12U, the self-cleavage is 0.02.

Take G22U A24C G30A G44U: the self-cleavage was found to be 0.05.

On to G1U C15A C46A, for which the self-cleavage amounted to 0.08.

Turning to G7C G35U C37A, the self-cleavage worked out at 0.18.

Regarding A4G C10U C31A U32G G44A, the self-cleavage was found to be 0.02.

As to C18A A25G A39C, the self-cleavage was 0.01.

On to C3G C23U G29C G30U C45U, for which the self-cleavage was 0.04.
